Results from the supplement of paper PMC9446081.
About 220 (0.56%) of roughly 39,000 compounds showed activity. This is one part of the list.

system: Escherichia coli K-12 BW25113; test: relative growth (OD600 normalised to plate interquartile mean) (fraction); higher = less growth inhibition, active = 0.2 or less; conditions: 50 µM; LB; incubation time: overnight (16-24 h)
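Also: static incubation at 37 °C against the wild-type strain, values averaged over two biological replicates.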

Question: How did the relative growth turn out when `C[C@H]1CN([C@@H](C)CO)C(=O)c2cc(NS(=O)(=O)c3cccs3)ccc2O[C@H]1CN(C)Cc1ccc(Cl)c(Cl)c1` was run?
Answer: The relative growth was inactive: 0.995.

Question: `OC[C@H]1O[C@@H](S[C@@H]2O[C@H](CO)[C@H](O)[C@H](n3cc(-c4cccc(F)c4)nn3)[C@H]2O)[C@H](O)[C@@H](n2cc(-c3cccc(F)c3)nn2)[C@H]1O` was tested. Which relative growth did it give?
Answer: Its relative growth is inactive: 0.949.

Question: `OC[C@H]1O[C@@H]2O[C@H]3[C@H](O)[C@@H](O)[C@@H](O[C@H]4[C@H](O)[C@@H](O)[C@@H](O[C@H]5[C@H](O)[C@@H](O)[C@@H](O[C@H]6[C@H](O)[C@@H](O)[C@@H](O[C@H]7[C@H](O)[C@@H](O)[C@@H](O[C@H]1[C@H](O)[C@H]2O)O[C@@H]7CO)O[C@@H]6CO)O[C@@H]5CO)O[C@@H]4CO)O[C@@H]3CO` was tested. Which relative growth did it give?
Answer: The relative growth was inactive: 1.01.

Question: With `COC(=O)[C@H]1CN(C)CCC1=O` as the compound, how does the relative growth read?
Answer: Its relative growth is inactive: 1.01.

Question: `CC(C)(C)OC(=O)N1CC(=O)C1` was tested. Which relative growth did it give?
Answer: Its relative growth is inactive: 0.941.

Question: With `Cc1ccc(S(=O)(=O)N(C)C[C@@H]2Oc3c(NC(=O)Nc4ccc(C(F)(F)F)cc4)cccc3C(=O)N([C@@H](C)CO)C[C@H]2C)cc1` as the compound, how does the relative growth read?
Answer: The relative growth was inactive: 0.792.

Question: With `O=C(C[C@@H]1C[C@@H]2c3cc(NC(=O)c4ccc5c(c4)OCO5)ccc3O[C@@H]2[C@H](CO)O1)NCc1ccc(Oc2ccccc2)cc1` as the compound, how does the relative growth read?
Answer: Its relative growth is inactive: 0.994.

Question: For `C[C@H](O)C#Cc1cnc2c(c1)C(=O)N([C@@H](C)CO)C[C@@H](C)[C@H](CN(C)C(=O)Nc1ccc(C(F)(F)F)cc1)O2`, which relative growth is on record?
Answer: The relative growth was inactive: 0.944.

Question: With `C[C@H](CO)N1C[C@H](C)[C@H](CN(C)Cc2ccccc2)OCCCC[C@H](C)Oc2ccc(NC(=O)Nc3cccc4ccccc34)cc2C1=O` as the compound, how does the relative growth read?
Answer: The relative growth was inactive: 1.06.

Question: How did the relative growth turn out when `C[C@@H]1CN([C@H](C)CO)C(=O)CCCn2cc(nn2)CO[C@H]1CN(C)S(=O)(=O)c1ccc2c(c1)OCCCO2` was run?
Answer: Its relative growth is inactive: 1.01.

Question: Which relative growth does the source give for `O=C([C@H]1N[C@H]2c3ccc(-c4ccc(F)cc4)c(=O)n3C[C@H]2[C@@H]1CO)N1CCOCC1` here?
Answer: Its relative growth is inactive: 1.03.

Question: With `C[C@H](CO)N1C[C@H](C)[C@@H](CN(C)Cc2ccccc2)OCc2ccccc2-c2c(n(C)c3ccccc23)C1=O` as the compound, how does the relative growth read?
Answer: The relative growth was inactive: 1.02.

Question: How did the relative growth turn out when `C[C@H]1CN([C@@H](C)CO)C(=O)c2cccc(NC(=O)C3CCOCC3)c2O[C@H]1CN(C)C(=O)Nc1ccc2c(c1)OCO2` was run?
Answer: The relative growth was inactive: 1.02.

Question: How did the relative growth turn out when `C[C@@H]1CN([C@@H](C)CO)S(=O)(=O)c2ccc(C#Cc3ccc(F)cc3)cc2O[C@H]1CN(C)S(C)(=O)=O` was run?
Answer: Its relative growth is inactive: 1.03.

Question: Which relative growth does the source give for `COc1ccc([C@H]([C@@H](O)Cc2ccccc2)N(C[C@H](/C=C/c2ccccc2)NC(=O)C(Cl)(Cl)Cl)[C@@H](Cc2ccccc2)C(OC)OC)cc1` here?
Answer: The relative growth was inactive: 1.03.

Question: For `C[C@H](CO)N1C[C@H](C)[C@H](CN(C)S(=O)(=O)c2cn(C)cn2)OCCCC[C@H](C)Oc2ccc(NC(=O)Nc3ccc(C(F)(F)F)cc3)cc2C1=O`, which relative growth is on record?
Answer: Its relative growth is inactive: 1.03.

Question: How did the relative growth turn out when `C=CC[C@H](CC(=O)N[C@@H](CO)Cc1ccccc1)C(=O)N[C@@H](COC(=O)[C@@H](CC=C)Cc1ccc(F)cc1)Cc1ccccc1` was run?
Answer: The relative growth was inactive: 1.02.

Question: With `COc1ccc(S(=O)(=O)Nc2ccc3c(c2)C(=O)N([C@H](C)CO)C[C@H](C)[C@@H](CN(C)S(=O)(=O)c2ccc(C)cc2)O3)cc1` as the compound, how does the relative growth read?
Answer: The relative growth was inactive: 1.03.

Question: Which relative growth does the source give for `C[C@H]1CN([C@@H](C)CO)S(=O)(=O)c2ccc(C3=CCCC3)cc2O[C@@H]1CN(C)S(=O)(=O)c1cn(C)cn1` here?
Answer: The relative growth was inactive: 0.979.

Question: How did the relative growth turn out when `C[C@H](CO)N1C[C@H](C)[C@H](CN(C)C(=O)c2ccccc2)Oc2cc(C#CC3(O)CCCC3)ccc2S1(=O)=O` was run?
Answer: Its relative growth is inactive: 0.987.

Question: `O=C(/C=C/c1ccc(O)c(O)c1)O[C@@H]1C[C@](OC(=O)/C=C/c2ccc(O)c(O)c2)(C(=O)O)C[C@@H](O)[C@H]1O` was tested. Which relative growth did it give?
Answer: Its relative growth is inactive: 0.987.

Question: `C[C@H](CO)N1C[C@H](C)[C@@H](CN(C)Cc2ccc3c(c2)OCO3)Oc2c(NC(=O)c3ccc(-c4nccs4)cc3)cccc2C1=O` was tested. Which relative growth did it give?
Answer: Its relative growth is inactive: 1.03.

Question: Which relative growth does the source give for `C[C@H](CO)N1C[C@H](C)[C@@H](CN(C)S(=O)(=O)c2cn(C)cn2)Oc2ccc(NC(=O)CCC(F)(F)F)cc2C1=O` here?
Answer: The relative growth was inactive: 1.02.

Question: Which relative growth does the source give for `COc1cccc2c1C(=O)c1c(O)c3c(c(O)c1C2=O)CC(O)(C(=O)CO)CC3OC1CC(N)C(O)C(C)O1` (stereo not drawn) here?
Answer: Its relative growth is inactive: 1.02.

Question: `C[C@H](CO)N1C[C@H](C)[C@H](CN(C)C(=O)Nc2ccc(C(F)(F)F)cc2)OCc2cn(nn2)CCCC1=O` was tested. Which relative growth did it give?
Answer: Its relative growth is inactive: 0.954.

Question: Which relative growth does the source give for `C[C@@H]1CN([C@H](C)CO)C(=O)Cc2cc(NC(=O)NC3CCCCC3)ccc2O[C@@H]1CN(C)C(=O)Nc1cccc2ccccc12` here?
Answer: The relative growth was inactive: 0.984.

Question: `COc1ccc(C#Cc2ccc3c(c2)[C@]2(C(=O)N3)[C@H](C(=O)N3CCN(c4ncccn4)CC3)[C@H]3C(=O)O[C@H](c4ccccc4)[C@H](c4ccccc4)N3[C@@H]2c2ccc(OCCO)cc2)cc1` was tested. Which relative growth did it give?
Answer: Its relative growth is inactive: 1.1.

Question: Which relative growth does the source give for `CC(=C\c1ccccc1)/C(C)=N/O` here?
Answer: Its relative growth is inactive: 0.99.

Question: With `NC(Cn1ccc(=O)c(O)c1)C(=O)O` (stereo not drawn) as the compound, how does the relative growth read?
Answer: Its relative growth is inactive: 0.983.

Question: For `C[C@@H]1CN([C@@H](C)CO)C(=O)Cc2cc(NS(=O)(=O)c3cccs3)ccc2O[C@@H]1CN(C)S(=O)(=O)c1ccccc1`, which relative growth is on record?
Answer: Its relative growth is inactive: 0.955.

Question: For `O=C(/C=C/c1ccc(O)c(O)c1)O[C@@H]1C[C@](O)(C(=O)O)C[C@@H](O)[C@H]1O`, which relative growth is on record?
Answer: Its relative growth is inactive: 1.01.

Question: `Cc1noc(C)c1S(=O)(=O)N(C)C[C@@H]1Oc2ccc(NC(=O)Nc3ccc4c(c3)OCO4)cc2CC(=O)N([C@@H](C)CO)C[C@@H]1C` was tested. Which relative growth did it give?
Answer: The relative growth was inactive: 1.

Question: For `C[C@H]1CCCCO[C@H](CN(C)Cc2ccc(C(F)(F)F)cc2)[C@@H](C)CN([C@@H](C)CO)C(=O)c2cc(NS(=O)(=O)c3ccc(F)cc3)ccc2O1`, which relative growth is on record?
Answer: The relative growth was inactive: 0.972.

Question: Which relative growth does the source give for `CN1C2CCC1CC(OC(c1ccccc1)c1ccccc1)C2.CS(=O)(=O)O` (stereo not drawn) here?
Answer: The relative growth was inactive: 1.03.

Question: Which relative growth does the source give for `COc1ccccc1-c1cnc2c(c1)C(=O)N([C@@H](C)CO)C[C@@H](C)[C@H](CN(C)C(=O)c1cccnc1)O2` here?
Answer: The relative growth was inactive: 1.02.

Question: `C[C@@H]1CCCCO[C@@H](CN(C)C(=O)Nc2ccccc2)[C@H](C)CN([C@@H](C)CO)C(=O)c2cc(NC(=O)c3ccccc3)ccc2O1` was tested. Which relative growth did it give?
Answer: The relative growth was inactive: 0.966.

Question: For `C[C@@H]1CCCCO[C@@H](CN(C)C(=O)Nc2cccc3ccccc23)[C@H](C)CN([C@@H](C)CO)C(=O)c2cc(NC(=O)C3CCCCC3)ccc2O1`, which relative growth is on record?
Answer: Its relative growth is inactive: 1.02.

Question: Which relative growth does the source give for `C[C@H](CO)N1C[C@H](C)[C@@H](CN(C)Cc2ccncc2)OCCCC[C@H](C)Oc2ccc(NC(=O)Nc3ccc(C(F)(F)F)cc3)cc2C1=O` here?
Answer: Its relative growth is inactive: 1.01.

Question: For `C[C@@H](O)C#Cc1cnc2c(c1)C(=O)N([C@@H](C)CO)C[C@H](C)[C@@H](CN(C)Cc1cncnc1)O2`, which relative growth is on record?
Answer: Its relative growth is inactive: 1.01.

Question: `C[C@@H]1CN([C@H](C)CO)C(=O)c2cc(NC(=O)Nc3ccc4c(c3)OCO4)ccc2O[C@@H](C)CCCCO[C@H]1CN(C)S(=O)(=O)c1ccc(Cl)cc1` was tested. Which relative growth did it give?
Answer: The relative growth was inactive: 1.04.

Question: How did the relative growth turn out when `NNC(=O)[C@@H](N)Cc1ccccc1` was run?
Answer: The relative growth was inactive: 1.

Question: `Cc1noc(C)c1S(=O)(=O)Nc1ccc2c(c1)C(=O)N([C@@H](C)CO)C[C@H](C)[C@@H](CN(C)C)OCCCC[C@@H](C)O2` was tested. Which relative growth did it give?
Answer: The relative growth was inactive: 0.994.

Question: Which relative growth does the source give for `CS(=O)(=O)Nc1ccc2c(c1)[C@@H]1C[C@H](CC(=O)NCC3CC3)O[C@H](CO)[C@@H]1O2` here?
Answer: Its relative growth is inactive: 1.01.

Question: Which relative growth does the source give for `CC(C)NC(=O)Nc1cccc2c1O[C@H](CN(C)Cc1ccc(Oc3ccccc3)cc1)[C@H](C)CN([C@@H](C)CO)C2=O` here?
Answer: Its relative growth is inactive: 0.985.

Question: With `c1cnc2c(SCc3nc4ccccc4s3)cccc2c1` as the compound, how does the relative growth read?
Answer: Its relative growth is inactive: 0.997.

Question: For `C[C@@H]1CCCCO[C@H](CN(C)C(=O)c2ccccc2)[C@H](C)CN([C@@H](C)CO)C(=O)c2cc(NC(=O)Nc3cccc4ccccc34)ccc2O1`, which relative growth is on record?
Answer: The relative growth was inactive: 1.04.

Question: With `C[C@H]1CN([C@@H](C)CO)C(=O)c2cc(NC(=O)Nc3ccccc3)ccc2O[C@@H]1CN(C)C(=O)Nc1ccc(C(F)(F)F)cc1` as the compound, how does the relative growth read?
Answer: Its relative growth is inactive: 1.

Question: How did the relative growth turn out when `CO[C@@H]1CN(C)C(=O)c2ccc(NC(=O)C3CCCCC3)cc2OC[C@@H](C)N(C(=O)Nc2ccc(C(F)(F)F)cc2)C[C@H]1C` was run?
Answer: The relative growth was inactive: 1.

Question: Which relative growth does the source give for `C[C@H](CO)N1C[C@H](C)[C@@H](CN(C)Cc2ccncc2)Oc2c(NS(=O)(=O)c3cn(C)cn3)cccc2C1=O` here?
Answer: Its relative growth is inactive: 0.992.

Question: Which relative growth does the source give for `NCC[C@H]1CC[C@@H](NC(=O)C2CCC2)[C@@H](CO)O1` here?
Answer: The relative growth was inactive: 1.02.

Question: How did the relative growth turn out when `CCc1ccc(-c2cc3c(=O)n(CC(=O)NCCN4CCOCC4)nc(C)n3n2)cc1` was run?
Answer: The relative growth was inactive: 1.03.

Question: Which relative growth does the source give for `O=C(C[C@@H]1CC[C@H]2[C@@H](COC[C@@H](O)CN2C(=O)Nc2ccc(Cl)c(Cl)c2)O1)NCc1ccncc1` here?
Answer: Its relative growth is inactive: 0.928.

Question: Which relative growth does the source give for `C[C@H]1CN([C@@H](C)CO)C(=O)c2cccc(NS(=O)(=O)c3cn(C)cn3)c2O[C@@H]1CN(C)Cc1ccc(C(=O)Nc2ccccc2N)cc1` here?
Answer: Its relative growth is inactive: 1.03.

Question: `CN1CCC[C@H](C(=O)O)C1` was tested. Which relative growth did it give?
Answer: Its relative growth is inactive: 1.07.

Question: With `CC(C)CC#Cc1ccc2c(c1)O[C@H](CN(C)C(=O)Cc1ccncc1)[C@@H](C)CN([C@@H](C)CO)S2(=O)=O` as the compound, how does the relative growth read?
Answer: Its relative growth is inactive: 0.976.

Question: For `C[C@@H]1CN([C@@H](C)CO)C(=O)c2cccc(NC(=O)C3CCOCC3)c2O[C@H]1CN(C)Cc1ccc2c(c1)OCO2`, which relative growth is on record?
Answer: Its relative growth is inactive: 1.

Question: How did the relative growth turn out when `C[C@@H]1CN([C@H](C)CO)C(=O)c2cccc(NC(=O)C3CCOCC3)c2O[C@H]1CN(C)Cc1ccc(Oc2ccccc2)cc1` was run?
Answer: The relative growth was inactive: 0.996.

Question: For `C[C@@H]1CN([C@@H](C)CO)C(=O)c2cc(NC(=O)Nc3cccc4ccccc34)ccc2O[C@H]1CN(C)Cc1ccccc1`, which relative growth is on record?
Answer: Its relative growth is inactive: 1.
